From US12297265B2, “Antibody and use thereof” (SICHUAN KELUN-BIOTECH BIOPHARMACEUTICAL CO., LTD., priority 2018, dated 2025)

Columns and labels:
human Claudin 18.1 = biological target: T1, human Claudin 18.1 (Homo sapiens, UniProt P56856); assay: Specificity by FACS, HEK293T-human Claudin 18.1 cells; format: binding; conditions: antibody 1000 nM
T1 construct: expressed in transfected cells; host or cells: HEK293T, infected with pLVX-IRES-puro lentivirus; clone HEK293T-Claudin 18.1-1C2
Experimental: (§1) The specificity of candidate antibodies was detected by FACS. The steps are as follows, HEK293T, HEK293T-human Claudin 18.1 and HEK293T-human Claudin18.2 cells were detached and then centrifuged. After washing twice with PBS, the cells were resuspended with PBS containing 1% BSA. 300,000 cells for each cell line were added with the candidate antibodies at a final concentration of 1000 nM, mixed well, and incubated for 1 h at 4° C., protected from light. Then the cells were washed for three times with PBS and FITC-labeled anti-human Fc secondary antibody (BioLegend, 409322) was added, followed by 0.5h of incubation at 4° C. in the dark. Detection was performed by flow cytometry (Beckman, Cytoflex) after washing with PBS for three times.

[1] = system: HEK293T-Claudin 18.2 cells; assay: NK cell mediated ADCC on HEK293T-Claudin 18.2 cells (LDH); format: cell-based; conditions: HEK293T-Claudin 18.2 target cells, NK92MI-CD16a effector cells; Table 13
Experimental: The steps were as follows: HEK293T-Claudin 18.2, L929-Claudin 18.2, KATOIII-Claudin 18.2 and NUGC-4 cells were harvested and centrifuged followed by adjustment of cell density. 1×10^4/well of cells were plated on a plate and incubated overnight. The medium was removed on the next day. NK92MI-CD16a cells (Huabo Biopharm) were centrifuged, resuspended in MEMA medium and adjusted to 1×10^6/mL, then 50 μL/well cells were added to the corresponding wells. […] For HEK293T-Claudin18.2, L929-Claudin18.2 and KATOIII-Claudin18.2 cells, ten antibody concentrations were tested, starting from 40 μg/mL with 5-fold dilution. For NUGC-4 cells, eleven antibody concentrations were tested, starting from 2 mg/mL with 5-fold dilution. 50 μL/well of the diluted antibodies were added to the corresponding wells and the reactions were left to stand in incubator at 37° C., 5% CO2 and incubated for 5.5h. Lysis buffer was then added to the positive control well and incubated for another 0.5h. 50 μL/well of Lactate Dehydrogenase (LDH) detection agent (DOJINDO LABORATORISE, CK12) were added to the wells and the absorbance at 490 nm were taken every 10 min on a plate reader (MD, SpectraMax M2). The results were imported into Graphpad Prism for curve fitting.
The cell used was HEK293T-Claudin 18.2. The ADCC activity of antibody 2C6.9-hz21 on HEK293T-Claudin 18.2 is stronger than that of IMAB362.

[2] = Pharmacokinetics in SCID mice; format: in vivo; conditions: 10 mg/kg intravenously
Experimental: Blood samples were taken 8 h, 1 d, 3 d, 8 d and 15 d after injection and serum antibody concentrations were determined by Cellular ELISA as described in Example 8. […] The data of mouse serum was subjected to curve fitting.

human Claudin18.2 [3] = biological target: T2, human Claudin18.2 (Homo sapiens, UniProt P56856); assay: FACS positive rate of NUGC-4 cells; format: binding; parameters: cell lines endogenously expressing human Claudin18.2; host or cells: NUGC-4 human gastric cancer cell line; conditions: NUGC-4 cells endogenously expressing human Claudin18.2, FACS
Experimental: To determine binding affinity of the candidate antibodies to cell lines endogenously expressing human Claudin18.2, FACS analysis was performed to detect human Claudin18.2 expression level on NUGC-4 cells (purchased from Japan JCRB cell bank, catalog number: JCRB0834) which endogenously expresses human Claudin18.2. […] The binding affinity between candidate antibodies and NUGC-4 cells was then determined by Cellular ELISA following the same protocol as above.

human Claudin18.2 [4] = biological target: T2, human Claudin18.2; assay: Specificity by FACS, HEK293T-human Claudin18.2 cells; format: binding; parameters: expressed in transfected cells; host or cells: L929, infected with pLVX-IRES-puro lentivirus, puromycin-selected monoclonal line; cells were formaldehyde-fixed for the cellular ELISA; conditions: antibody 1000 nM
Experimental: as §1

B1: 1E9.2-hz11: humanized antibody of 1E9.2; VH SEQ ID NO: 29, VL SEQ ID NO: 33; heavy chain SEQ ID NO: 102, light chain 103 (antibody)
heavy: EVQLVESGGGLVKPGGSLRLSCAASGFSFSNSAMSWVRQAPGKGLEWVSTISSGDSYTYYADSVKGRFTISRDNAKNSLYLQMNSLRAEDTAVYYCARQGYGNALDYWGQGTLVTVSS[sequence of human IgG1 constant region omitted]
light: DIVMTQSPDSLAVSLGERATINCKSSQSLLNSGNQKNYLTWYQQKPGQPPKLLIYWSSTRESGVPDRFSGSGSGTDFTLTISSLQAEDFAVYYCQNDYYYPLTFGGGTKVEIKRTVAAPSVFIFPPSDEQLKSGTASVVCLLNNFYPREAKVQWKVDNALQSGNSQESVTEQDSKDSTYSLSSTLTLSKADYEKHKVYACEVTHQGLSSPVTKSFNRGEC
modifications: heavy chain amino acid sequence of humanized antibody 1E9.2 hz11; light chain amino acid sequence of humanized antibody 1E9.2 hz11
Human Claudin 18.1
  binding to human Claudin 18.1: not human Claudin 18.1
[1]
  Max. Cytotoxicity: 83%
[2]
  AUC: 9088.87 µg·h/mL
Human Claudin18.2 [3]
  NUGC-4 cells tested positive for Claudin 18.2: 80%
Human Claudin18.2 [4]
  binding to human Claudin 18.2: specifically bind to human Claudin 18.2
